Experiment [1] concerns the target human PD1-Fc-OX40L, Q15116. Kind of experiment: non-reducing SDS-PAGE with Western blot; purified protein, non-reducing and reducing conditions, with or without PNGase F; probed with anti-PD1, anti-Fc and anti-OX40L.
Experiment [2] has as its target T1, human PD-L2, histidine-tagged recombinant (human), Q9BQ51.
T1 chain: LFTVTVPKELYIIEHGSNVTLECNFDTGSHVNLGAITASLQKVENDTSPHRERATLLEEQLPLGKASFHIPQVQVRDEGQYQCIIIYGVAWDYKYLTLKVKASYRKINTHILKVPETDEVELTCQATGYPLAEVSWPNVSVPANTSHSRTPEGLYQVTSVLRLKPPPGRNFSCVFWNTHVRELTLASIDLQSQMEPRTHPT
Kind of experiment: SPR; BioRAD ProteOn XPR36; His-tagged targets immobilised on Ni-activated HTG chip; analyte in PBS/Tween (0.005%) pH 7.0, 3 min injection, 5 min dissociation, flow 80-100 μl/min.

For experiment [3], the target named is T2, human OX40, histidine-tagged recombinant (human), P43489.
T2 chain: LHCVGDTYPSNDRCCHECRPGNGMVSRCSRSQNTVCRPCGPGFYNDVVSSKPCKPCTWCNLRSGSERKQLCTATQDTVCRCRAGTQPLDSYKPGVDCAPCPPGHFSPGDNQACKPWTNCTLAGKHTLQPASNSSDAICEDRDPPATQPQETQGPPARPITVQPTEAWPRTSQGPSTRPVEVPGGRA
The description is as above.

Experiment [4] deals with T3, human PD-L2 on CHO-K1 cells (human), Q9BQ51.
T3 chain: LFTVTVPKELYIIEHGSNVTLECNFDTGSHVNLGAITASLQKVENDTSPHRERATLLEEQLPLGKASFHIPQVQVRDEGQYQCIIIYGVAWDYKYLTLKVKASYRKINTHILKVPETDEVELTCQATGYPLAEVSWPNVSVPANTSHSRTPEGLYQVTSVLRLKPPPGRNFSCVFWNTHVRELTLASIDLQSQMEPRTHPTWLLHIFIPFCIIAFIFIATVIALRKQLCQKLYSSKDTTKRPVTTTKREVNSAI
Kind of experiment: flow cytometry on cells; stable cell lines CHOK1/hPD-L1, CHOK1/hPD-L2 and Jurkat/hOX40 incubated with PD1-Fc-OX40L; dose-response plots to derive EC50.

In experiment [5] the target is T4, human OX40 on Jurkat or HeLa cells (human), P43489.
T4 chain: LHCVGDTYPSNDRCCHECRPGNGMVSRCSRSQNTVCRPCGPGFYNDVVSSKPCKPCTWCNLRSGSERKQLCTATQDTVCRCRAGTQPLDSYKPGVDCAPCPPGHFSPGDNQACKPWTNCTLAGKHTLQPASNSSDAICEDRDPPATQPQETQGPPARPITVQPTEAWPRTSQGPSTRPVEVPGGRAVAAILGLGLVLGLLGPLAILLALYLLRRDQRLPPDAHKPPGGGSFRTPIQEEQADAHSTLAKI
The experiment is described as above.

B1: human PD1-Fc-OX40L (Fc fusion)
chain: [omitted - about 400 residues with a human IgG4 Fc]QVSHRYPRIQSIKVQFTEYKKEKGFILTSQKEDEIMKVQNNSVIINCDGFYLISLKGYFSQEVNISLHYQKDEEPLFQLKKVRSVNSLMVASLTYKDKVYLNVTTDNTSLDDFHVNGGELILIHQNPGEFCVL
modifications: not checked
B1 returned a stoichiometry N in experiment [1] of 2. Further, the Kd was found to be 1.24 nM in experiment [2] and 0.246 nM in experiment [3]. For the same molecule, the EC50 in experiment [4] is 47.7 nM; in experiment [5], 6.28 nM.

The values are drawn from publication PMC6299665.
